{"source": "paper PMC12040169", "about": "(PLOS Biology, 2025)", "note": "This is one part of the list."}
{"system": "T1, C. trachomatis L2/434/Bu expressing GFP (CTL2-GFP)", "T1 construct": "L2/434/Bu GFP intracellular growth in HeLa cells", "parameters": "species or system HeLa; C. trachomatis total inclusion area by high-content imaging, normalised to DMSO", "conditions": "total inclusion area; 28.5 h, 10 µM; inhibitor", "in_short": "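Following bulk GFP and resorufin fluorescence reads, infected cells were fixed, Hoechst-stained and imaged on a high-content platform. Inclusion total area and number per well served as growth proxies; nuclei counts indicated host viability. MICs were derived as for the fluorescence assay.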"}
{"smiles": "O=c1[nH]nc(SCCOc2c(Cl)c(Cl)c(Cl)c(Cl)c2Cl)c(=O)[nH]1", "note": "[CBK262794]", "% of control remaining": 110.206}
{"smiles": "Cn1cc(C(=O)N2CCC(c3ccccc3)C2)c2ccccc2c1=O", "note": "(stereo not drawn) [CBK281921]", "% of control remaining": 76.174}
{"smiles": "NC(=O)COc1ccc(C2Nc3ccccc3C(=O)N2C2CC2)cc1", "note": "(stereo not drawn) [CBK295198]", "% of control remaining": 100.135}
{"smiles": "COc1ccc(S(=O)(=O)Nc2cc(N3CCCC3)c3occc3c2)cc1OC", "note": "[CBK061975]", "% of control remaining": 64.9939}
{"smiles": "Cn1cc2c(n1)[C@H]1CN(C(=O)c3cc(C(F)(F)F)nn3C)C[C@H]1C2", "note": "[CBK283400]", "% of control remaining": 120.314}
{"smiles": "COc1ccc2[nH]cc(CCNC3CCc4cccc(OC)c4C3)c2c1", "note": "(stereo not drawn) [CBK016569C]", "% of control remaining": 46.3537}
{"smiles": "CN(C)S(=O)(=O)N1CCN(c2ccc([N+](=O)[O-])c(NC3C4CC5CC(C4)CC3C5)c2)CC1", "note": "(stereo not drawn) [CBK268986]", "% of control remaining": 95.0472}
{"smiles": "Cc1nnc(Nc2ccc(F)cc2)c2ccccc12", "note": "[CBK287873]", "% of control remaining": 75.6538}
{"smiles": "O=c1c2ccccc2[nH]c(=S)n1CCCN1CCOCC1", "note": "[CBK092141]", "% of control remaining": 83.4672}
{"smiles": "COC1C(O)C(CO)OC1n1cc(C)c(N)nc1=O", "note": "(stereo not drawn) [CBK201227]", "% of control remaining": 83.689}
{"smiles": "COc1cc2c(cc1OC)C1(CCOCC1)CNC2CC(c1ccccc1)c1ccccc1", "note": "(stereo not drawn) [CBK014382]", "% of control remaining": 74.6945}
{"smiles": "CN1CCC(CN(C)CC2CCCN(Cc3ccccc3)C2)C1", "note": "(stereo not drawn) [CBK282946]", "% of control remaining": 88.3977}
{"smiles": "Fc1ccc2[nH]c3c(c2c1)CCN1C(c2ccccn2)N2CCC31CC2", "note": "(stereo not drawn) [CBK284431]", "% of control remaining": 74.7902}
{"smiles": "CCOC(=O)C1CCN(S(=O)(=O)c2ccc(C(C)(C)C)cc2)CC1", "note": "[CBK051240]", "% of control remaining": 92.3169}
{"smiles": "O=C(O)CCC(=O)N1c2ccccc2CC1c1ccccc1", "note": "(stereo not drawn) [CBK286860]", "% of control remaining": 88.5628}
{"smiles": "Cn1nc(CO)c2c1CCN(CC(=O)Nc1nc(C(C)(C)C)cs1)C2", "note": "[CBK307161]", "% of control remaining": 46.0844}
{"smiles": "COc1ccc(CNC2CCCc3c2cnn3C)c(OC)c1", "note": "(stereo not drawn) [CBK304875]", "% of control remaining": 44.3539}
{"smiles": "CCc1ccc(CNC(=O)Cn2nnc(-c3ccc(CNC4CCOCC4)cc3)n2)cc1", "note": "[CBK161029C]", "% of control remaining": 27.297}
{"smiles": "Cn1c(=O)c2c(ncn2CC(=O)Nc2cccnc2)n(C)c1=O", "note": "[CBK133286]", "% of control remaining": 90.9774}
{"smiles": "COc1ccc(CNS(=O)(=O)c2cc(OCC(N)=O)c(C)cc2Cl)cc1", "note": "[CBK266495]", "% of control remaining": 125.592}
{"smiles": "Cc1ccnn1CCC(=O)N1CCCC1c1cc2cccnc2[nH]1", "note": "(stereo not drawn) [CBK282230]", "% of control remaining": 82.6367}
{"smiles": "CCN(C)c1c(C)nc2c(OCc3cccc(Cl)c3)cccn12", "note": "[CBK147310]", "% of control remaining": 70.3435}
{"smiles": "COc1cc(/C=N/NC(=O)C2COc3ccccc3O2)cc([N+](=O)[O-])c1O", "note": "(stereo not drawn) [CBK261480]", "% of control remaining": 99.0173}
{"smiles": "O=C(NC(c1ccccc1)c1ccsc1)C1CCN(S(=O)(=O)c2cccc(Cl)c2)CC1", "note": "(stereo not drawn) [CBK060188]", "% of control remaining": 93.1873}
{"smiles": "CN(CCN1CCCCC1=O)c1nccc(CCC(F)(F)F)n1", "note": "[CBK307218]", "% of control remaining": 80.8778}
{"smiles": "CC(=O)N1CCc2cc(C)ccc2C12CCN(CCCOc1ccccc1)CC2", "note": "[CBK081064]", "% of control remaining": 92.0082}
{"smiles": "CCN(CC1CCOCC1)C(=O)Cn1c(C)cc(=O)c2ccccc21", "note": "[CBK307230]", "% of control remaining": 50.2427}
{"smiles": "CS(=O)(=O)NC1CCN(c2nc(C(F)(F)F)nc3ccsc23)CC1", "note": "[CBK304592]", "% of control remaining": 63.1438}
{"smiles": "CC1(C)CC(NC2=CC(=O)CC2)CC(C)(C)N1", "note": "[CBK028997]", "% of control remaining": 42.0322}
{"smiles": "COc1cc(CN2CCN(Cc3ccccc3)CC2)cc([N+](=O)[O-])c1O", "note": "[CBK261574]", "% of control remaining": 97.085}
{"smiles": "CCn1c(C)c(C)n2c3c(=O)n(CCN4CCOCC4)c(=O)n(C)c3nc12", "note": "[CBK269786]", "% of control remaining": 83.3191}
{"smiles": "Cc1nc(C(F)(F)F)ccc1C(=O)NCCn1ccnc1C", "note": "[CBK281982]", "% of control remaining": 107.512}
{"smiles": "N#CCc1c(-c2ccc(Br)cc2)nc2ccccn12", "note": "[CBK172896]", "% of control remaining": 113.701}
{"smiles": "CN(C)CCCN(Cc1ccc2ncccc2c1)Cc1ccco1", "note": "[CBK283197]", "% of control remaining": 90.3206}
{"smiles": "CCN1CCN(Cc2nc3c([nH]2)c(=O)n(C)c(=O)n3C)CC1", "note": "[CBK269413]", "% of control remaining": 89.3638}
{"smiles": "O=C(NC(=O)c1ccc2ccccc2c1)Nc1ccc(Br)cc1", "note": "[CBK261735]", "% of control remaining": 85.7524}
{"smiles": "O=C(NCC1CCCO1)c1ccc(NC(=O)C2C3C=CC(C3)C2C(=O)O)cc1", "note": "(stereo not drawn) [CBK266317]", "% of control remaining": 107.042}
{"smiles": "C(=N\\c1ccc2c(c1)OCCOCCOc1cc(/N=C/c3ccccc3)ccc1OCCOCCO2)/c1ccccc1", "note": "[CBK261388]", "% of control remaining": 97.6923}
{"smiles": "Cc1csc2c(C3CCN(C(=O)c4cc[nH]n4)CC3)nc(C)n12", "note": "[CBK285245]", "% of control remaining": 106.038}
